Measured values reported in the supplement of paper PMC3334620.
Over roughly 33,000 sequences, “E-score (-0.5 to 0.5)” has its median near -0.011; the highest 2% begin near 0.28. Some of the results follow.

Each sequence was assayed against T1, Gcr1 (UniProt P07261) (assay: PBM E-score (8-mer binding enrichment) (E-score (-0.5 to 0.5)); higher = stronger / more preferred TF binding; most listed sequences are background and not binding sites). Details: protein concentration: 100 nM; construct: GST-full length.
T1 sequence: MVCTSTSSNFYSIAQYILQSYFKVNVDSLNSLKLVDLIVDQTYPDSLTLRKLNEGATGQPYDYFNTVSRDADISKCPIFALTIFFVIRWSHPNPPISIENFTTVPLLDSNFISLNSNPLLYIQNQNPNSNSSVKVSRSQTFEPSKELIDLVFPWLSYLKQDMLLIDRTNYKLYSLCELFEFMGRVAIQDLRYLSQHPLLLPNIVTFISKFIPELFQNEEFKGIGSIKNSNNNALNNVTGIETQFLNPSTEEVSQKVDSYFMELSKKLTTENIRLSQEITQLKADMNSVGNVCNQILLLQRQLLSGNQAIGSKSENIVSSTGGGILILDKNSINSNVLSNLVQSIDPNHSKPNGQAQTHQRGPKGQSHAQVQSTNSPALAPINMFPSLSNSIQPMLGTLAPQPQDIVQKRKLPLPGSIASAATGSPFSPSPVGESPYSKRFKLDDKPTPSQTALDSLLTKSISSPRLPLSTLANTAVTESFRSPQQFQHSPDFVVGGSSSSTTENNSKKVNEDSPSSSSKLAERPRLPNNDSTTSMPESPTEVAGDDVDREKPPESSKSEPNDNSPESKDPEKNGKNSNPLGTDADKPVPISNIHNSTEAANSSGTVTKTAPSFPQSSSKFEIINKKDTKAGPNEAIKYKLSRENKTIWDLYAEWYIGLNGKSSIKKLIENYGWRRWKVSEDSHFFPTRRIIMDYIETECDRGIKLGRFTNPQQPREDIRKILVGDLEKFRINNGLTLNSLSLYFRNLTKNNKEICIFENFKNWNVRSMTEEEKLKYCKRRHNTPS
Method: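 Universal 'all 10-mer' protein binding microarrays (Agilent AMADID 015681) probed with GST-tagged S. cerevisiae TFs (full-length or DBD) made by in vitro transcription/translation (PURExpress), about 100-200 nM. Bound TF was detected with fluorescent anti-GST. Each ungapped 8-mer (which stands for itself and its reverse complement) is scored by the PBM enrichment score (E-score), a modified Wilcoxon-Mann-Whitney statistic from -0.5 to +0.5, computed with the Universal PBM Analysis Suite. Scale: above 0.35 generally sequence-specific binding.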

In order of falling “PBM E-score” value:
1. GCGTCCAA  0.372
2. ATTTTGGG  0.274
3. ATTAGTAG  0.261
4. TACTAGTA  0.24
5. ACATAGGA  0.239
6. AAGATTAA  0.233
7. ATTTGAAG  0.229
8. ATTATTAG  0.208
9. TTATGAAA  0.206
10. GAATTAGA  0.2
11. ACAACTTC  0.192
12. CCTAAACC  0.19
13. GGCTTATA  0.183
14. AGCACTTA  0.175
15. AGGACCCC  0.171
16. AATTATCG  0.163
17. TAGTACTA  0.153
18. AACTACCA  0.152
19. CGCGGGGC  0.151
20. ATTAGGTC  0.149
21. TTCTCAAA  0.147
22. AAATGCGT  0.145
23. CTAGATCC  0.137
24. ATACCTAT  0.137
25. ATAGAGGG  0.137
26. ATTGGGCG  0.134
27. GCCCTAAA  0.13
28. CAGCCGCC  0.124
29. CACATACA  0.123
30. CTATTTAC  0.12
31. AATATAGC  0.113
32. CTTCAATA  0.112
33. CACTCCGG  0.11
34. CGCAATAG  0.104
35. GCTGCAAA  0.104
36. AATCGGGG  0.103
37. GAGTTCGA  0.102
38. TCCAAGAA  0.0996
39. AACAACTT  0.0987
40. ATTTGCGG  0.0976
41. CCAGTTTC  0.0973
42. CAAACTTA  0.0945
43. ACCAAACG  0.093
44. CCGCAAAA  0.0921
45. ACTCCAGT  0.0907
46. GCTAACTA  0.0833
47. ATGCTTAA  0.0702
48. AAGCTACA  0.0686
49. TTACGCAA  0.0651
50. CGGGCCCA  0.0644
51. GGTCGTCA  0.0635
52. ATGTTGCC  0.0602
53. GAATTAAA  0.0595
54. CGATCGGA  0.0565
55. ACTAAGAT  0.0547
56. AACATCAA  0.0502
57. CATTCCTC  0.0499
58. GCCTGTGA  0.0496
59. AGAAGAAA  0.0466
60. CCGGGTAC  0.0433
61. GAAACCTA  0.0381
62. ATATTACC  0.0368
63. TGCGCACA  0.0348
64. CCGCGTCA  0.0347
65. AATGCAAG  0.0306
66. GCTAGCAA  0.0296
67. CCATTTCA  0.0258
68. GAGTCTGA  0.0244
69. CATCACGC  0.0239
70. GTGATAAA  0.0219
71. CGTATTCA  0.02
72. GAGCTGAA  0.0195
73. TATTGCGA  0.0177
74. AGTTTGTA  0.0172
75. CTCATGTA  0.017
76. CAACGACC  0.0148
77. ATACCAGC  0.00966
78. CAGAGACA  0.0093
79. GCGTTCAC  0.00885
80. ACTAACAT  0.00716
81. CAATACCC  0.00575
82. CCCAACAA  0.00509
83. CAATCCTG  0.00457
84. GAGACCAC  0.00125
85. AACCCTCT  0.00103
86. CCGATGCC  0.00052
87. CCGATTCA  -0.00017
88. CGACACAG  -0.00213
89. ACTTCTCC  -0.0031
90. CAGGGAAG  -0.00506
91. ACGGTGAA  -0.0089
92. CCCCCGCA  -0.00922
93. ACACCTCT  -0.0109
94. TGGTAAAA  -0.011
95. CGATGGCA  -0.0116
96. CTCACCCA  -0.012
97. CGAGAGAC  -0.0123
98. AAGCTAAG  -0.0175
99. GAGTTTAC  -0.0188
100. CGGCCTCA  -0.0193
101. CAGAAAGG  -0.02
102. GAGGTCCC  -0.0211
103. AATCGAAA  -0.0237
104. AGACCCGA  -0.024
105. ATATATTG  -0.0254
106. GTACAGTA  -0.0272
107. TCCGAAGA  -0.029
108. AACGGCGT  -0.0331
109. CACCCAGG  -0.0332
110. CCACGGAG  -0.0337
111. AGCAGATG  -0.0362
112. GCCCCTTA  -0.0366
113. CACCACGG  -0.0416
114. GTCGTCAC  -0.0438
115. AATCACGC  -0.0463
116. ATATCGAC  -0.0467
117. GTTGTTCA  -0.0476
118. TCATGTAA  -0.0502
119. AAAGCGGG  -0.0519
120. AGCTCGTC  -0.0532
121. AAGCTTAA  -0.0597
122. CAATCCGC  -0.0651
123. TAGCACAA  -0.0654
124. CTACTGTC  -0.0659
125. ACACTTTG  -0.0695
126. AGCGGCCC  -0.07
127. TCCCGCCA  -0.0715
128. CTGTGTTC  -0.0735
129. CAAGAGTA  -0.084
130. CTGGTATA  -0.0854
131. CCGACTCA  -0.0878
132. GCCACGGA  -0.0878
133. GGTCTCAA  -0.0976
134. CATAGACA  -0.0992
135. AGCATGCT  -0.102
136. ACCGACGG  -0.107
137. AGCCTAGC  -0.113
138. GTGGGAAA  -0.115
139. CGTGACAC  -0.116
140. AGTCACAG  -0.118
141. GCTCTGCA  -0.118
142. CGACTTAG  -0.118
143. TGGCGAAA  -0.121
144. TATAGAGA  -0.121
145. CTCCCATC  -0.121
146. CTACGTTA  -0.122
147. GCTCTCGA  -0.123
148. CGGAGAAC  -0.124
149. ACTAGAGC  -0.124
150. AGGTTGAT  -0.128
151. ATTAGACC  -0.13
152. CTAAACCC  -0.131
153. CGCGACTC  -0.132
154. TACGCTCA  -0.136
155. ACTACAGT  -0.15
156. AACGCATA  -0.154
157. CGTCTCAC  -0.157
158. AGTACGAG  -0.158
159. TAGCGAGA  -0.167
160. GCAACGAC  -0.189
161. ACCGCCGG  -0.192
162. ATTTGTAC  -0.194
163. CAAGCCTG  -0.203
164. GACCTACC  -0.214
165. GCGAGTGA  -0.218
166. ACTCTTCG  -0.23
167. CGTAGGTC  -0.231
168. CGATTACG  -0.235
169. AACAGTGA  -0.249
170. GACTATCC  -0.257
171. GACCCTTA  -0.26
172. ACCGAGTA  -0.275
